# Literature values as cited in paper PMC11006913.
# The list shows a part of the results.
# Legend:
# Conditions in all cases: PBM; conditions not shown; double strand, one strand shown; scale: upbm affinity estimate (log intensity, higher = more binding, comparable within an allelic series)
# [1] = molecular target: PITX2 L100Q (Homo sapiens) (UniProt Q99697)
# [2] = molecular target: PITX2 R108H (Homo sapiens) (UniProt Q99697)
# [3] = molecular target: PITX2 R130W (Homo sapiens) (UniProt Q99697)
# [4] = molecular target: PITX2 T114P (Homo sapiens) (UniProt Q99697)
Sequence,binding signal [1],binding signal [2],binding signal [3],binding signal [4]
GATTAATC [8-mer GATTAATC],11.5,9.8,8.75,9.96
CACGCCCC [8-mer CACGCCCC],8.18,8.11,7.95,8.2
GATTAACA [8-mer GATTAACA],10.9,9.22,8.72,9.34
GGGCTTAA [8-mer GGGCTTAA],11,8.93,8.22,9.48
AACTAATC [8-mer AACTAATC],10.9,9.24,8.69,9.51
AAGGATTA [8-mer AAGGATTA],11.5,9.63,8.69,10.1
GATTAAGA [8-mer GATTAAGA],11,9.4,8.78,9.62
ACCCGGCG [8-mer ACCCGGCG],8.12,8.02,7.85,8.05
GGGTACCC [8-mer GGGTACCC],8.68,8.16,7.96,8.26
AGGATTAG [8-mer AGGATTAG],11.6,9.65,8.54,10.2
AGGGCCCC [8-mer AGGGCCCC],8.17,7.89,7.75,7.96
GCGTCGCC [8-mer GCGTCGCC],8.33,8.06,8,8.07
CAGACCTC [8-mer CAGACCTC],8.39,8.15,8.04,8.2
CGTGGCAC [8-mer CGTGGCAC],8.25,8.3,8.18,8.3
CGGATTAC [8-mer CGGATTAC],11.1,9.38,8.54,9.75
GGCGCCAC [8-mer GGCGCCAC],8.31,8.01,7.95,8.07
GGCCGGAC [8-mer GGCCGGAC],8.31,7.99,7.9,8.1
AGGATTAC [8-mer AGGATTAC],11.2,9.43,8.62,9.83
GGCGGCCA [8-mer GGCGGCCA],8.22,8.07,7.94,8.11
GGATTATA [8-mer GGATTATA],11.5,9.84,8.7,10.2
GGGATTTA [8-mer GGGATTTA],10.8,9.09,8.46,9.52
ATAAATCC [8-mer ATAAATCC],10.8,9.08,8.61,9.41
GTGATTAA [8-mer GTGATTAA],10.9,9.28,8.77,9.49
ACCGGGGC [8-mer ACCGGGGC],8.16,7.87,7.71,7.9

Sequence,binding signal [1],binding signal [2],binding signal [3],binding signal [4]
TAATCCAA [8-mer TAATCCAA],11.1,9.4,8.76,9.68
GCTTTGTA [8-mer GCTTTGTA],9.45,8.62,8.52,8.63
GAGGATCA [8-mer GAGGATCA],10,8.59,8.33,8.76
ACTTAGGC [8-mer ACTTAGGC],9.63,8.49,8.37,8.51
CTAAGCCA [8-mer CTAAGCCA],10.3,8.59,8.35,8.76
GGATTTAA [8-mer GGATTTAA],10.8,9.17,8.65,9.46
CCGGATTA [8-mer CCGGATTA],11.3,9.53,8.37,9.93
GGGACCCA [8-mer GGGACCCA],8.23,8.13,8.01,8.1
ACGATTAC [8-mer ACGATTAC],9.8,8.79,8.6,8.75
GAATGGCC [8-mer GAATGGCC],8.13,8.18,8.1,8.21
CGACAGGC [8-mer CGACAGGC],8.31,8.15,8.03,8.1
ACTTAATC [8-mer ACTTAATC],10.9,9.35,8.66,9.57
ATAATCCA [8-mer ATAATCCA],11.4,9.57,8.82,9.9
TCACTTAA [8-mer TCACTTAA],9.85,8.91,8.75,8.73
AATAATCC [8-mer AATAATCC],11.3,9.59,8.74,9.9
ATAATCTA [8-mer ATAATCTA],10.8,9.34,8.92,9.44
CGGGATTA [8-mer CGGGATTA],11.4,9.52,8.43,10.1
CAGGCCCG [8-mer CAGGCCCG],7.98,7.84,7.74,7.88
CACCCCGG [8-mer CACCCCGG],8.14,8.01,7.81,8.08
GAGGATTA [8-mer GAGGATTA],11.6,9.8,8.62,10.3
GCCCTCAC [8-mer GCCCTCAC],8.3,8.17,8.1,8.13
GAACCGCC [8-mer GAACCGCC],8.28,8.06,8.02,8.08
CCTACCGC [8-mer CCTACCGC],8.28,8.1,7.94,8.13
CGAGATTA [8-mer CGAGATTA],11,9.18,8.66,9.44

Sequence,binding signal [1],binding signal [2],binding signal [3],binding signal [4]
CCGCGCCG [8-mer CCGCGCCG],8.08,7.98,7.85,7.94
CTGGATTA [8-mer CTGGATTA],11.4,9.39,8.69,9.85
AGGCTTAA [8-mer AGGCTTAA],10.9,9.08,8.44,9.36
CACCGGGG [8-mer CACCGGGG],8.01,7.88,7.75,7.92
CTTAAGCC [8-mer CTTAAGCC],10.7,8.91,8.27,9.27
ACTCATCC [8-mer ACTCATCC],9.29,8.57,8.61,8.63
CAGGATTA [8-mer CAGGATTA],11.3,9.4,8.5,9.89
CACTGCCC [8-mer CACTGCCC],8.42,8.21,8.18,8.26
CGGGCCGC [8-mer CGGGCCGC],7.96,7.89,7.68,7.9
ATGGATTA [8-mer ATGGATTA],11.3,9.43,8.63,9.84
TGGATTAA [8-mer TGGATTAA],11.6,9.78,8.7,10.2
GCGCCGCC [8-mer GCGCCGCC],8.07,7.93,7.86,7.96
CTAATCCA [8-mer CTAATCCA],11.4,9.41,8.5,9.85
AGGGGGTC [8-mer AGGGGGTC],8.21,8.17,8,8.16
GGATTACA [8-mer GGATTACA],11.3,9.5,8.7,9.84
GCACGCCA [8-mer GCACGCCA],8.17,8.06,8,8.12
AGGATTTA [8-mer AGGATTTA],10.8,9.22,8.71,9.42
GCTGCGCC [8-mer GCTGCGCC],8.02,7.87,7.93,7.93
CGGCTTAA [8-mer CGGCTTAA],10.7,8.93,8.38,9.21
GACCGAAC [8-mer GACCGAAC],8.29,8.25,8.21,8.23
TAAGATTA [8-mer TAAGATTA],10.8,9.09,8.5,9.24
GGATCACC [8-mer GGATCACC],9.61,8.45,8.4,8.54
CGCCGGGA [8-mer CGCCGGGA],8.45,8,7.87,8.05
